Laboratory results: PubChem BioAssay (Tox21)
“And” between values parts separate entries of the source, which are not always exact repeats. Identical values can stand only once. This list was built around the results that the source calls inconclusive (neither active nor inactive); the mix of calls is not that of the screen. Potencies of inconclusive entries are doubtful fits and often do not repeat. The source made the active and inactive calls. Unless noted, calls follow the shape of the dose curve; as a rule, active = well fitted inhibition curve with a large enough effect in the signal ratio in the repeat runs; inconclusive = weak or mixed curves, or effect the other way; inactive = flat fitted curve, though single readings scatter; the % refers to the signal ratio. *1 amine or outer side, *2 acyl side, *3 side chain or, on linkers, in order; H or OH if unused. Where a SMILES comes first, the peptide text is derived from it. Bridges are numbered along the chain shown (N, C = ends). Roman numbers before positions name the chains, in order. [ ]: non-standard residue; d: D form. Actinocin(9to1) = Cc1c2oc3c(C)ccc(C(=O)[*:1])c3nc-2c(C(=O)[*:2])c(N)c1=O; NMeV = CN[C@H](C(=O)O)C(C)C; Sar = CNCC(=O)O

Test: qHTS assay for small molecules that induce genotoxicity in human embryonic kidney cells expressing luciferase-tagged ATAD5 - cell viability (AID 651634; calls by dose curve; also: nearly all actives have a fitted effect of over 25% in size; as to activity, negative = cytotoxicity: % is scaled to controls: 0 for no effect and ±100 for the full control effect)
Details: HEK293T ATAD5-luc cells viability, CellTiter-Fluor, 15.5 h; series mostly up to 83.3 µM; activity, negative = cytotoxicity: at the top concentration
Summary of the method: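 15.5 hr compound or vehicle exposure of HEK293T cells expressing luciferase-tagged ATAD5 at 37C; live-cell protease activity is read by fluorescence after 30 min of CellTiter-Fluor.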
Potency is read from the fitted curve at half-maximal effect; tags tell the direction and shape of the fitted curve or compound fluorescence and quenching.

Row | Compound | Potency | activity, negative = cytotoxicity
1 | Cc1c2oc3c(C)ccc(C(=O)N[C@@H]4C(=O)N[C@H](C(C)C)C(=O)N5CCC[C@H]5C(=O)N(C)CC(=O)N(C)[C@@H](C(C)C)C(=O)O[C@@H]4C)c3nc-2c(C(=O)N[C@@H]2C(=O)N[C@H](C(C)C)C(=O)N3CCC[C@H]3C(=O)N(C)CC(=O)N(C)[C@@H](C(C)C)C(=O)O[C@@H]2C)c(N)c1=O (I: T[dV]P[Sar][NMeV] / II: T[dV]P[Sar][NMeV]; ester I:1-I:C, II:1-II:C; linker I:N-II:N via Actinocin(9to1)) | active: 16.8 nM and active: 23.7 µM | 
2 | CCCCCCCCC(CCCCCC)C(=O)O (stereo unspecified) |  | inactive: 8.33%
3 | C=CCN1C[C@H](C(=O)N(CCCN(C)C)C(=O)NCC)C[C@@H]2c3cccc4[nH]cc(c34)C[C@H]21 | inconclusive: 2.37 µM [falling, full curve, poor fit] | 
4 | Nc1ccccc1O | inconclusive: 47.9 µM [falling, partial curve] | 
5 | CC1(CN2CCC(n3c(=O)[nH]c4ccccc43)CC2)OCc2ccccc2-n2cccc21 (stereo unspecified) | inconclusive: 26.6 µM [falling, partial curve] | 
6 | CCN1CCN(c2cc(-c3ccc(F)cc3)c3c(n2)CCCCCC3)CC1 |  | inactive: 22.8%
7 | CNCCC(Oc1ccc(C(F)(F)F)cc1)c1ccccc1 (stereo unspecified) | inconclusive: 29.8 µM [falling, single point] | 
8 | CC(=O)NC1(c2cccc(F)c2)CCN(CC[C@@]2(c3ccc(Cl)c(Cl)c3)CN(c3ccccc3)C(=O)CO2)CC1 | inconclusive: 61.3 µM [falling, partial curve, poor fit] | 
9 | CC#C[C@]1(O)CC[C@H]2[C@@H]3CCC4=CC(=O)CCC4=C3[C@@H](c3ccc(N(C)C)cc3)C[C@@]21C | inconclusive: 18.8 µM [falling, partial curve, poor fit] and inconclusive: 43.3 µM [falling, partial curve, poor fit] | 
10 | CCCCCCCC[P+](CCCCCCCC)(CCCCCCCC)CCCCCCCC | active: 13.6 µM | 
11 | CCCCCCCCOc1ccc(C(=O)O)cc1 | inconclusive: 60.4 µM [falling, single point] | 
12 | CN1C(=O)N(c2ccccc2Br)Cc2cnc(Nc3ccc4c(c3)OCC(CO)O4)nc21 (stereo unspecified) | active: 54.5 µM | 
13 | O=C1OC2(c3cc(Br)c(O)c(Br)c3Oc3c2cc(Br)c(O)c3Br)c2c(Cl)c(Cl)c(Cl)c(Cl)c21 | active: 9.7 µM and active: 37.1 µM | 
14 | S=c1nc[nH]c2nc[nH]c12 | inconclusive: 8.42 µM [falling, partial curve, poor fit] | 
15 | NC1[C@H]2CN(c3nc4c(cc3F)c(=O)c(C(=O)O)cn4-c3ccc(F)cc3F)C[C@@H]12 (stereo partly specified) | inconclusive: 21.1 µM [falling, partial curve, poor fit] | 

Test: qHTS assay for small molecule disruptors of the mitochondrial membrane potential - cell viability (AID 720634; calls by dose curve; also: nearly all actives have a fitted effect of over 20% in size)
Details: HepG2 viability, ATP luminescence (CellTiter-Glo), 1 h; series mostly up to 83.2 µM; activity change, negative = cytotoxicity: at the top concentration
Summary of the method: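 In this qHTS format, HepG2 cells plated overnight were pinned with compound, incubated 1 hr, and assayed for ATP luminescence with CellTiter-Glo after m-MPI dye addition.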

Row | Compound | Potency
16 | O=C1c2ccccc2C(=O)C1(O)O | inconclusive: 77.4 µM [cytotoxic, single point]
17 | O=C1OC(c2ccc(O)cc2)(c2ccc(O)cc2)c2ccccc21 | inconclusive: 33.5 µM [cytotoxic, single point] and inconclusive: 48.6 µM [cytotoxic, partial curve, poor fit]
18 | CCCCC(CC)COP(=O)(O)O (stereo unspecified) | inconclusive: 62.1 µM [cytotoxic, partial curve, poor fit]
19 | CC(=O)Oc1ccc2c(c1)CC[C@@H]1[C@@H]2CC[C@]2(C)[C@@H](O)CC[C@@H]12 | inconclusive: 16.8 µM [cytotoxic, partial curve]
20 | O=C1OC2(c3cc(Br)c(O)c(Br)c3Oc3c2cc(Br)c(O)c3Br)c2c(Cl)c(Cl)c(Cl)c(Cl)c21 | inconclusive: 68.7 µM [cytotoxic, partial curve]
21 | NC(=O)C(=O)N/N=C/c1ccc([N+](=O)[O-])o1 | inconclusive: 33.5 µM [cytotoxic, partial curve, poor fit]

Test: qHTS assay for small molecule disruptors of the mitochondrial membrane potential (AID 720635); as to ratio activity, negative = MMP loss: % is scaled to controls: 0 for no effect and ±100 for the full control effect
Details: HepG2 mitochondrial membrane potential, Mito-MPS dye ratio; ratio activity, negative = MMP loss: at 83.2 µM (top of the series) unless noted
Summary of the method: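 HepG2 cells (2,000/well) attached overnight at 37C, then took compound for 1 hr at 37C, 5% CO2. Mito-MPS dye was added for 30 min; fluorescence was read at 490/535 nm (monomers) and 540/590 nm (aggregates).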

Row | Compound | ratio activity, negative = MMP loss | Potency
22 | CCCOc1ccc2nc(NC(=O)OC)[nH]c2c1 | inactive: 6.89% | 
23 | Cc1c2oc3c(C)ccc(C(=O)N[C@@H]4C(=O)N[C@H](C(C)C)C(=O)N5CCC[C@H]5C(=O)N(C)CC(=O)N(C)[C@@H](C(C)C)C(=O)O[C@@H]4C)c3nc-2c(C(=O)N[C@@H]2C(=O)N[C@H](C(C)C)C(=O)N3CCC[C@H]3C(=O)N(C)CC(=O)N(C)[C@@H](C(C)C)C(=O)O[C@@H]2C)c(N)c1=O (I: T[dV]P[Sar][NMeV] / II: T[dV]P[Sar][NMeV]; ester I:1-I:C, II:1-II:C; linker I:N-II:N via Actinocin(9to1)) |  | inconclusive: 16.8 µM [activator, partial curve]
24 | O=C(/C=C/c1ccccc1)OCCc1ccccc1 |  | inconclusive: 30.6 µM [inhibitor, partial curve, poor fit]
25 | CCCCCCCCCCCCCCCC[N+](C)(C)CCN(Cc1ccc(OC)cc1)c1ncccn1 |  | active: 11.4 µM
26 | CCCCCCCCC(CCCCCC)C(=O)O (stereo unspecified) |  | inconclusive: 0.0863 µM [activator, full curve, poor fit]
27 | C=CCN1C[C@H](C(=O)N(CCCN(C)C)C(=O)NCC)C[C@@H]2c3cccc4[nH]cc(c34)C[C@H]21 |  | inconclusive: 29.8 µM [inhibitor, single point]
28 | CCCCC1=NC2(CCCC2)C(=O)N1Cc1ccc(-c2ccccc2-c2nn[nH]n2)cc1 |  | inconclusive: 13.3 µM [activator]
29 | CC1(C)O[C@@H]2C[C@H]3[C@@H]4CCC5=CC(=O)C=C[C@]5(C)[C@@]4(F)[C@@H](O)C[C@]3(C)[C@]2(C(=O)CO)O1 |  | inconclusive: 33.5 µM [activator, single point]
30 | Nc1ccccc1O |  | active: 60.3 µM
31 | CC1(CN2CCC(n3c(=O)[nH]c4ccccc43)CC2)OCc2ccccc2-n2cccc21 (stereo unspecified) |  | active: 29.8 µM
32 | CCCCCCNC(=O)n1cc(F)c(=O)[nH]c1=O | inconclusive: -5.32% | 
33 | O=C1OC(c2ccc(O)cc2)(c2ccc(O)cc2)c2ccccc21 |  | active: 21.1 µM and active: 48.2 µM and active: 68.6 µM
34 | Cc1ccc2c(Br)cc(Br)c(O)c2n1 |  | active: 23.7 µM
35 | CCCCC(CC)COP(=O)(O)O (stereo unspecified) |  | inconclusive: 78.2 µM [inhibitor, partial curve, poor fit]
36 | Cc1cc(C2CCCCC2)n(O)c(=O)c1 |  | active: 3.2 µM
37 | COC(=O)Nc1nc2ccc(C(=O)c3ccccc3)cc2[nH]1 |  | active: 2.27 µM
38 | CC(=O)NC1(c2cccc(F)c2)CCN(CC[C@@]2(c3ccc(Cl)c(Cl)c3)CN(c3ccccc3)C(=O)CO2)CC1 |  | inconclusive: 48.7 µM [activator, partial curve]
39 | COc1ncnc(NS(=O)(=O)c2ccc(N)cc2)c1OC | inactive: 10.6% | 
40 | C=CC(=O)OCCn1c(=O)n(CCOC(=O)C=C)c(=O)n(CCOC(=O)C=C)c1=O |  | inconclusive: 77 µM [activator, single point]
41 | CC#C[C@]1(O)CC[C@H]2[C@@H]3CCC4=CC(=O)CCC4=C3[C@@H](c3ccc(N(C)C)cc3)C[C@@]21C |  | active: 10.6 µM and inconclusive: 13.7 µM [fluorescent, full curve, poor fit]
42 | CCCCCCCC[P+](CCCCCCCC)(CCCCCCCC)CCCCCCCC |  | active: 0.0963 µM
43 | CC(C)COC(=O)c1ccc(N)cc1 | inconclusive: -20.3% | 
44 | CCCCCCOC(=O)c1ccccc1O |  | inconclusive: 34.4 µM [rising, partial curve, poor fit]
45 | CCCCCCCCOc1ccc(C(=O)O)cc1 |  | inconclusive: 13.5 µM [inhibitor, single point]
46 | CN1C(=O)c2ccccc2C1=O |  | inconclusive: 2.17 µM [activator, full curve, poor fit]
47 | O=C1OC2(c3cc(Br)c(O)c(Br)c3Oc3c2cc(Br)c(O)c3Br)c2c(Cl)c(Cl)c(Cl)c(Cl)c21 |  | inconclusive: 1.72 µM [activator, full curve] and inconclusive: 16.6 µM [activator, partial curve]
48 | NC(=O)C(=O)N/N=C/c1ccc([N+](=O)[O-])o1 | inconclusive: 12.3% | 
49 | S=c1nc[nH]c2nc[nH]c12 |  | inconclusive: 33.5 µM [inhibitor, single point]
50 | NC(=O)c1cccnc1 |  | inactive
51 | NC1[C@H]2CN(c3nc4c(cc3F)c(=O)c(C(=O)O)cn4-c3ccc(F)cc3F)C[C@@H]12 (stereo partly specified) |  | inconclusive: 10.6 µM [activator, full curve]
